Test results reported in the supplement of paper PMC3334620.
Whole data set: some 33,000 sequences, median “E-score (-0.5 to 0.5)” near -0.053, cut for the highest 2% near 0.37. Some of the results follow.

Target: Hap1 (UniProt P0CE41)
Experiment: PBM E-score (8-mer binding enrichment) (E-score (-0.5 to 0.5)); higher = stronger / more preferred TF binding; most listed sequences are background and not binding sites
Settings: protein concentration: 200 nM; construct: GST-DNA-binding domain
How it was run: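 Each ungapped eight-base word and its reverse complement, pooled, received an E-score from the Universal PBM Analysis Suite. Underlying scans, normalised with masliner, recorded fluorescent anti-GST bound to GST-tagged yeast transcription factors. These were applied at about 100-200 nM to universal all-10-mer Agilent arrays double-stranded by primer extension.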

Sequence of UniProt P0CE41 (P0CE41 whole entry): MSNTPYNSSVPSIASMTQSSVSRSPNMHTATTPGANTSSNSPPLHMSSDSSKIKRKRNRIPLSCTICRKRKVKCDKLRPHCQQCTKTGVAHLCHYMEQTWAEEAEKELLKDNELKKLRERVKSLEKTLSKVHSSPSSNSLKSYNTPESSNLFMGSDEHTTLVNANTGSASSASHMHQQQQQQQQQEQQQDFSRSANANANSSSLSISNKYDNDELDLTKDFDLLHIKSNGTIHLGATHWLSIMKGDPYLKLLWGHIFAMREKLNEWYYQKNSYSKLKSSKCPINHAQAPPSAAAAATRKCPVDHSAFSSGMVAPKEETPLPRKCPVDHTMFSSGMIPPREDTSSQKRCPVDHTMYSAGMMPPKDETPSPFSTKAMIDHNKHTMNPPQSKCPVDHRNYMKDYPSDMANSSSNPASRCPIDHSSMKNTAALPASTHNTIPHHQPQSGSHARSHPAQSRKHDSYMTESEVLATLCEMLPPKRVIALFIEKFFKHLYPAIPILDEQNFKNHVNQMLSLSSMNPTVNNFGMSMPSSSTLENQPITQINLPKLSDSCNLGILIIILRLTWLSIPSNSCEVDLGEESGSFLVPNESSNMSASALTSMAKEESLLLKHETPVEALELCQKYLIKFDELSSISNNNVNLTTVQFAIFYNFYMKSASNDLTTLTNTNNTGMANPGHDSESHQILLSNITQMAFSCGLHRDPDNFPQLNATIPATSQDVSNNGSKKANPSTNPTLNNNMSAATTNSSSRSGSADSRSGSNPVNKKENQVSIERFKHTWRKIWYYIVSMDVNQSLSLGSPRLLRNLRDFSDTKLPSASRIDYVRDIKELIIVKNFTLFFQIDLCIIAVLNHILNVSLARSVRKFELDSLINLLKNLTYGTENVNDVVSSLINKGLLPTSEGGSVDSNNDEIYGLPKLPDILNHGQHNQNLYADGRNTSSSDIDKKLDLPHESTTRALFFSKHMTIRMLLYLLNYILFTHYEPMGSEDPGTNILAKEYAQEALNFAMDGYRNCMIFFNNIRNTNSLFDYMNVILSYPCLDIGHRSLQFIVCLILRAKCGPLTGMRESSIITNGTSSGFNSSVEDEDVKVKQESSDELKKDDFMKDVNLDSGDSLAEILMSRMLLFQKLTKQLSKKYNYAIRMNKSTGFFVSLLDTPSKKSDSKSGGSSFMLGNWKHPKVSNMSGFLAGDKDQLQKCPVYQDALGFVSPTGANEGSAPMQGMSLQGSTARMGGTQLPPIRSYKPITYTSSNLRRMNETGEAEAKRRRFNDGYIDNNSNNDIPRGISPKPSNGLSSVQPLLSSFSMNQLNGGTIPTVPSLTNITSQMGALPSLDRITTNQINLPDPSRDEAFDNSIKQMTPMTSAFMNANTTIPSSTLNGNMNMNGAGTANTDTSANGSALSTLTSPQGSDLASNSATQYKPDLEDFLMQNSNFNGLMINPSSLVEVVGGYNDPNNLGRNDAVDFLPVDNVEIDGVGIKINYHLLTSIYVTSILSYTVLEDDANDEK

Sequence	PBM E-score
GAACGTAC	-0.147
ATAACTCA	-0.0521
CTCTTTAA	-0.192
ACTCTTGA	-0.281
GGGCATAA	0.163
TCAATTAA	-0.0848
GGAGCGAC	0.106
CGTTGGGC	0.0102
GAACTCTA	-0.125
AGGCTGAT	-0.287
CCAAAAAA	-0.0319
GCTCCCCC	-0.0262
AATATCCC	0.109
ATTAGGGC	-0.0938
CAAATGCG	-0.0421
ATTGAACC	-0.0801
AGCCGCAC	0.101
AACGTCAG	-0.182
CATCGTTC	-0.179
AACGCTGT	0.0217
TGAGGGCA	-0.102
GGGTCAAC	0.0925
GGGTTCGA	-0.06
ACATCTAC	-0.0567
GCAGTTAA	0.136

Sequence	PBM E-score
TCCTACCA	-0.195
ATTCCTTG	-0.0522
GAAGGAAA	-0.167
CTAGCCTA	0.0474
CGCCCTTC	0.109
CCTGACGA	-0.23
AGGACGGG	-0.0193
TAGCGTAA	-0.00108
CTCTGCGC	0.02
AGTATTGC	-0.0662
GGTACAAC	-0.0316
GAATTTCA	-0.117
CTCATTGC	-0.113
CCAGGCAC	-0.107
CCCTCTCG	-0.0046
CAACCAAC	-0.1
TTCGGAAA	0.389
ATTAGATA	-0.203
AGCCTCCA	-0.219
GAACTTCA	-0.0792
GGTGTCAA	-0.0329
AGTGCCGA	0.273
GAGATAGC	0.0742
CAGAGTTC	-0.0889
CCCGCTAG	0.204

Sequence	PBM E-score
CGCCTCAC	-0.0389
GCTAAAAC	0.0818
AACAATAT	0.112
CACCGGAG	0.341
AGGGGAGC	-0.0321
ACAAACCC	0.127
GGACGGCC	0.227
CTAATTAA	-0.22
CTTAATGC	0.0397
AAACAATT	-0.068
AAACGGTG	-0.173
TACGCCCA	-0.0723
CGGTATAG	0.202
CATCCTTC	-0.15
AACCACTT	-0.118
AGCTTCCC	-0.0873
TGCTACAA	-0.0752
AACCTGGA	-0.219
CCCCTCAG	-0.14
CATACAAC	-0.18
CCGGATTC	0.323
CTCCTACA	-0.267
ATGCTCAC	-0.164
CCTTCGCC	0.0382
ATTCGCGG	0.246

Sequence	PBM E-score
ACATCTCC	0.283
AAGTCTAA	-0.1
CAATTTAG	-0.131
TAGGTAAA	-0.131
CGGGTCGC	0.261
TGTAGAAA	-0.134
TCTCATAA	-0.237
AATCATAA	-0.225
TAAGTGCA	-0.025
ATGTGGTC	-0.139
CCGCTACC	0.264
AGACACTA	0.0157
GATAGGGA	-0.00736
ACCCAAAT	-0.0876
GGATGCTA	-0.0224
ATGTCCCA	-0.0835
ATTCCAAG	-0.177
TACCTGCA	-0.0929
CACTCGGA	0.277
ACCCCGCT	0.244
GATAGATC	0.0249
GAGAAAGC	0.0166
CCAGTTGA	-0.116
ACTCCTGA	-0.212
AACCACGT	-0.286

Sequence	PBM E-score
AGTACACG	-0.0406
AGAAACGG	0.0978
GCTGATTA	-0.00254
GACGCGTA	-0.114
GGTAACAA	0.13
CATACTAC	-0.0704
AGTCGCCG	0.129
AAGTTGTC	0.0657
CAGCTCGA	-0.0955
GAAATCAC	0.103
AAAATTCT	-0.108
CTGTTCCC	-0.0303
CGGGGATC	0.335
GCGTTTCA	-0.162
GGTGTCCA	-0.0962
ACTGAAAG	-0.0734
CCCTTGGA	-0.152
CCAGCGTA	-0.0298
ATTACACC	0.00924
CTACGCAC	-0.0643
CGTTACAC	0.0416
AGCTATGC	-0.337
CAATGGCA	-0.0882
CATCTGAC	-0.147
CTACTTAC	-0.149

Sequence	PBM E-score
AATTCTGT	-0.0282
GCCGAACC	0.322
GGTGGGAC	-0.0953
AACAATTA	0.0343
AACTATCC	0.113
CGATCGAA	0.0229
ATGGCGCA	0.035
AATCCGCG	0.244
ACTATTTA	0.11
CCTACCCG	0.106
GAGTAGTA	-0.0277
CCAGTACC	0.0753
CACATAGC	-0.092
AGCCGGGG	0.268
AGTATTCC	0.161
GCTCCGAA	0.367
CAGCACTA	-0.234
AAGTATTG	-0.136
GGAGCCGA	0.276
CCCAGTTC	0.0773
TGTCCACA	-0.159
TATTTGCA	-0.236
ACACTGAT	-0.332
GTGTTTGA	-0.238
AAGCATTG	-0.304

Sequence	PBM E-score
GAACGGAC	0.203
AGCCTTAA	0.16
AGGAGATC	-0.098
AACAAGTG	-0.293
AAGGGTAC	-0.173
GTGGAGCA	-0.125
AATCTTCA	-0.0413
CGACCCAC	0.112
AGGAAGCC	0.00309
GAAGCTTC	0.00491
GAATTCAA	0.103
CCGAGGTA	0.28
GGCATCCA	-0.14
GGTTAGCA	-0.0201
AAAAATGC	0.107
CAAAGTCA	-0.198
AGATGCAC	-0.0371
CTATTCGA	-0.292
CTTGCCGC	0.0486
ATCCACCC	0.0404
ACCTGGCG	-0.00541
TCAGTGAA	-0.136
CCATGATC	-0.0916
GGCCTAAC	0.164
CAACTGCC	0.0469

Sequence	PBM E-score
GCTAGGGA	-0.228
CCAAGACC	-0.0784
ATCGTTCA	-0.138
AGATATAA	-0.015
CTTTTTCA	-0.313
CTAAAGAC	-0.156
ACTGATTG	-0.282
AGGGAACG	-0.0997
AACCTATT	0.0652
CCCTAAGA	-0.193
ATGAGCAC	-0.0616
ACGTGAAG	-0.295
CCACGTAC	-0.165
CAGCGAGA	-0.0469
AGCTATAA	-0.162
CGGGGAAG	0.284
GATCCAGC	0.0551
ATTCTGGC	-0.0263
AAAGAAAC	0.0402
AAAAATCC	0.258
CCGGGGTA	0.301
CCAGGGGG	-0.26
AATGTGGG	-0.0696
ACTGGCCC	0.0158
GCGAACAA	0.0858

Sequence	PBM E-score
GCGTCTCA	-0.283
ACCGCCCA	0.0676
AAGAGACA	-0.0984
AACAGGGC	-0.174
CTCAAATC	-0.131
AACCAAAG	-0.29
CCACGGCC	0.166
CAAACCTA	-0.194
AGCATTCC	0.0452
CTTTTTTA	-0.0942
CAACATAG	-0.0614
ACCTACTA	-0.141
TTACCGAA	0.233
TGATATCA	-0.122
ATTATGCG	0.207
ATAGGATC	-0.04
ACTGTGAG	-0.148
GCTTACCA	-0.0368
CTATCACA	-0.0542
GAGTAAAC	-0.00531
ATTACGTA	0.052
GTTAGAAC	0.048
AGCTCGGG	0.363
AATCAGTA	-0.115
GCGATGTA	-0.0542

Sequence	PBM E-score
AGTACCAG	0.0047
ACCTCTGC	-0.143
GGACGTGA	0.0064
AGTCTGTG	-0.348
AATGCTTC	-0.0292
TAACCGGA	0.417
CACTACAC	-0.178
CGTTTGGA	0.00761
CTTTGGCC	0.044
CGGGCATA	0.386
AAGCTGCG	-0.0912
AATGAGAC	-0.191
TCAACCAA	-0.18
ACCTTGAT	-0.046
TGATGTAA	-0.0956
GTGGTTCA	-0.0794
ATACAGTA	-0.0276
CCGGGCAG	0.26
CAGCCGCG	0.0683
ACCGTGAC	-0.0308
ACTTGACC	-0.0881
CGTGGTAC	-0.0995
TCCATACA	-0.0369
AAAAATGG	0.00791
TATTTCCA	0.334

Sequence	PBM E-score
AGAAGACA	-0.227
CGGAGCCC	0.0818
CTATAGCA	-0.0247
AGGAGAGC	-0.238
AAGCGTTG	-0.091
CATTCAAG	-0.0757
CTACTTAA	-0.296
AGTCCTAG	-0.241
CCTCCGTA	0.246
GAGTATGC	0.0835
GGCTCACA	-0.127
GACACGTA	-0.194
CAGCGTAG	-0.168
CATGTCGG	0.156
AAGGACCG	0.22
AGCGTCTC	-0.00623
CTCCGGTC	0.431
GAATGGCC	0.13
CAGTCGTC	-0.16
CATCGAGC	0.0339
CCTCCTGA	-0.18
ATGAGATA	-0.0505
CCCGTCTC	0.0719
TCCGAGGA	0.384
CCGGTCCG	0.42

Sequence	PBM E-score
GGACTTAC	0.332
GATTGGCA	-0.134
AGCTAGAC	-0.112
ACCAGCAA	0.0919
CTACCCTC	-0.149
ACGAGCCT	-0.242
GCCCTCGA	-0.308
CGTAGGCC	-0.165
AGCGTATC	-0.128
GCACCCAA	0.103
CTAAGCAG	-0.123
ATGGGTTG	-0.133
TCAATCCA	-0.108
GCGATCAA	-0.0352
GTCATGTA	-0.238
ATGCATCG	0.0913
AAAGAGAC	-0.0982
AGTGTGAA	-0.185
AGCGTCCG	0.188
GAATGTTA	0.0712
AATTTAGG	-0.0289
ACGGCGAC	0.141
ACTCCGGC	0.389
GATGCTAA	0.127
AAGCATAA	-0.0296

Sequence	PBM E-score
GACAACTA	-0.138
ATCGTAGC	-0.064
AGAGGCAT	-0.0975
AGACATAC	-0.184
CCAGCAAC	-0.0591
CGGATTTA	0.489
CAAGCATG	-0.171
ACCTTAAT	-0.0464
CAATTCAA	-0.227
AATCGGGC	0.155
CATTCGCG	0.199
CGACGGGC	0.26
CTAACGGC	0.184
ACAATCCA	-0.204
AACTTAGC	-0.148
AGATAAAG	0.0627
GGATTGCC	0.138
ATTTAAAT	-0.052
ATGACTCG	0.0331
ACACGAGC	-0.302
CCCTTTGC	-0.0869
ATTTCGGC	0.326
AGTGTTTA	0.0706
CAGCTGCC	-0.0391
AGCCAAGA	-0.26

Sequence	PBM E-score
GTCAGTGA	-0.221
TCCGATCA	0.221
ACATATAT	0.0991
ACGACGGC	0.0534
CACTACGG	0.135
AGTGACGG	0.169
ACTTTGCC	0.0612
AGAGAAAA	-0.04
ATTGGACG	-0.0395
GTATATAA	-0.0803
ACTATCGG	0.349
CAATGTCA	-0.163
CTTCCGTA	0.262
ACGTAATC	-0.16
CCGAGGCG	0.292
TCACGGCA	-0.0536
ACTCTGTG	-0.115
CCACATCA	-0.064
AACCCCGG	0.456
